For 57 molecules, Potency results are on record in PubChem BioAssay AID360 (National Center for Advancing Translational Sciences (NCATS), 2006).

SMILES strings stand for the structures. The whole screen tested about 48,000 compounds, of which about 550 (1.1%) were called active. Inconclusive results (about 4%) are left out. Rule as the data show it: active = potency below about 15 µM; inconclusive = mostly about 16 µM to 33 µM; inactive = weaker than that. The list shows a part of the results. Where only a bound is given, the exact number is not on record here.
Potency is read from the fitted curve at half-maximal effect.

In this experiment the target is Lysosomal acid glucosylceramidase (Homo sapiens) (UniProt P04062). The experiment in a line: Glucocerebrosidase.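 Also: the screen sought inhibitors.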 To be noted: purified enzyme, resorufin glucoside fluorescence (screen aimed at inhibitors), 20 min; series mostly up to 77 µM. The essentials: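 Compounds titrated against 0.2 nM normal enzyme, 30 uM resorufin beta-D-glucopyranoside substrate, citrate/phosphate buffer with taurocholate and tween-20, pH 5.9. Reaction ran 20 min at room temperature; fluorescence (Ex 548/Em 600) gave AC50.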
Sequence of UniProt P04062 (P04062 whole entry, looked up): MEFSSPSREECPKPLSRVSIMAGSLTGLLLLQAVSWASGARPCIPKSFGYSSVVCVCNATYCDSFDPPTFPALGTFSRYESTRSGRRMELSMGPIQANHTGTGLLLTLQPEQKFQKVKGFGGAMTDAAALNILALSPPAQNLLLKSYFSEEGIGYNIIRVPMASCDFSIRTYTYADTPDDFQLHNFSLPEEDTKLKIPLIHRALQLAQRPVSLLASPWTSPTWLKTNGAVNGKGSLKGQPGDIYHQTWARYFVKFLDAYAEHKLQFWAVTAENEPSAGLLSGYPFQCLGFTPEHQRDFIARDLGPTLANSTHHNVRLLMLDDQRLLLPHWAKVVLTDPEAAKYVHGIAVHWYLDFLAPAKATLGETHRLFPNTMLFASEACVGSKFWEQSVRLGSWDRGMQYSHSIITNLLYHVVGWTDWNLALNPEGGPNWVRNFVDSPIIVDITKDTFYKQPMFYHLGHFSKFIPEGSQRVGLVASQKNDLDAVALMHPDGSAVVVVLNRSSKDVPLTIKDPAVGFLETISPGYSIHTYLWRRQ
In the case of `CS(=O)(=O)N(CC(=O)Nc1ccc2c(c1)OCCO2)c1ccc2c(c1)OCO2`, the Potency is inactive: > 76.9 µM. On to `Cc1cc(C(=O)CSc2nnc(-c3ccco3)o2)c(C)n1CC1COc2ccccc2O1` (configuration not stated), for which the Potency was inactive: > 76.9 µM. Next, `CC1CCCCN1CC(=O)Nc1sc2c(c1C#N)CCC2` (configuration not stated): inactive: > 76.9 µM; `COCCCNC(=O)CN(c1cccc(Cl)c1C)S(C)(=O)=O`: inactive: > 76.9 µM. Take `O=C(COC(=O)c1n[nH]c2ccccc12)Nc1ccc(S(=O)(=O)N2CCCC2)cc1`: the Potency was inactive: > 76.9 µM.

On to `CC1CCc2c(sc(NC(=O)c3noc4c3CCCC4)c2C(N)=O)C1` (configuration not stated), for which the Potency was inactive: > 76.9 µM. Then `COC(=O)Nc1nnc(-c2ccccc2Cl)s1`, with inactive: > 76.9 µM; and `CCOC(=O)CSc1nc2cc(C(=O)NCc3ccco3)ccc2c(=O)n1C1CCCCC1`, with inactive: > 76.9 µM. Then `Cc1cc(Oc2ccc(=O)n(C)n2)nc(Oc2ccc(=O)n(C)n2)n1`, with inactive: > 76.9 µM; and `Cc1ccc(NC(=O)CS(=O)CC(=O)Nc2ccc(N3CCOCC3)cc2)cc1Cl` (configuration not stated), with inactive: > 76.9 µM; and `CCCS(=O)(=O)N1CCc2cc(OC)c(OC)cc2C1`, with inactive: > 76.9 µM. Then `CCC(=O)Nc1nonc1-c1nc2ccccc2n1Cc1ccccc1`, with inactive: > 76.9 µM; and `NC(=O)C1(N2CCCCC2)CCN(C(=O)c2cccn3c(=O)c4cc(Cl)ccc4nc23)CC1`, with inactive: > 76.9 µM; and `CCCS(=O)(=O)N1CCC(C(=O)NCCCOCC)CC1`, with inactive: > 76.9 µM.

Turning to `O=C(c1ccc2c(c1)OCO2)N1CCCC(c2ccccc2)C1` (configuration not stated), the Potency was inactive: > 76.9 µM. Then `O=C(Nc1ccc(Cl)cc1)Nc1ccc(N2CCOCC2)cc1`, with inactive: > 76.9 µM; and `COc1cc(C2C(C(=O)c3ccc(C)o3)=C(O)C(=O)N2Cc2cccnc2)ccc1O` (configuration not stated), with inactive: > 76.9 µM; and `O=S(=O)(Nc1nc2ccccc2s1)c1ccc(Br)s1`, with inactive: > 76.9 µM.

For `O=C(c1cc(-c2ccc(Cl)c(Cl)c2)on1)N1CCCCC1`, the Potency was inactive: > 76.9 µM. Next, `COc1cccc(C(=O)N2CCCC(c3nc(-c4cccs4)no3)C2)c1` (configuration not stated): inactive: > 76.9 µM; `COC(=O)c1cc(-c2cccc(OC)c2)n[nH]1`: inactive: > 76.9 µM. Then `O=C(C1CC1)N1CCc2cc(Br)cc(S(=O)(=O)N3CCOCC3)c21`, with inactive: > 76.9 µM; and `CCOC(=O)CSc1nnc(-c2ccc(S(=O)(=O)N3CCOCC3)cc2)n1-c1ccccc1`, with inactive: > 76.9 µM; and `CCOC(=O)c1cc2c(=O)n3ccccc3nc2n(CC2CCCO2)c1=NC(C)=O` (configuration not stated), with inactive: > 76.9 µM. Then `CCc1nc2ccccc2n1CC(=O)N(C(C)CC)C1CCS(=O)(=O)C1` (configuration not stated), with inactive: > 76.9 µM; and `Cc1cccc(NC(=O)c2sc3nc(-c4ccccc4)cn3c2C)n1`, with inactive: > 76.9 µM; and `CCOC(=O)c1nn(-c2sc(C(=O)OC)c(C)c2C(=O)OC)cc1O`, with inactive: > 76.9 µM. On to `CN(C)CC(C)(C)NS(=O)(=O)c1ccc(Cl)cc1`, for which the Potency is inactive: > 76.9 µM. Then `COC(=O)c1nnn(-c2nc(N3CCCCC3)nc(N3CCCCC3)n2)c1C`, with inactive: > 76.9 µM; and `COc1ccc(C2CC(=O)Nc3ccccc3S2(=O)=O)cc1OC` (configuration not stated), with inactive: > 76.9 µM. For `O=C(CCSc1nnc(-c2ccco2)o1)Nc1ccccc1`, the Potency is inactive: > 76.9 µM. Then `O=c1c2ccccc2nnn1Cc1ccccn1`, with inactive: > 76.9 µM. Next, `c1nc(N2CCC3(CC2)OCCO3)c2[nH]cnc2n1`: inactive: > 76.9 µM. On to `CCOc1ccc(Nc2cc(C)nc(-n3nc(C)cc3C)n2)cc1`, for which the Potency was inactive: > 76.9 µM. Then `COc1ccc(-c2csc(N(CC3CCCO3)C(=O)c3cccs3)n2)cc1` (configuration not stated), with inactive: > 76.9 µM; and `Cc1ccccc1-n1c(=O)cc(N2CC(C)OC(C)C2)[nH]c1=O` (configuration not stated), with inactive: > 76.9 µM. Next, `COc1cc(N(C)C)c(NC(C)=O)cc1C(=O)O`: inactive: > 76.9 µM.

Turning to `O=C(NCCCO)c1ccc2[nH]c3ccccc3c2c1`, the Potency is inactive: > 76.9 µM.

For `COc1ccc2c(c1OC)C(=O)OC2CC(=O)c1ccc2c(c1)OCO2` (configuration not stated), the Potency was inactive: > 76.9 µM. Next, `Cc1cc(C(=O)Nc2c(C)n(C)n(-c3ccccc3)c2=O)c(C)o1`: inactive: > 76.9 µM.

For the molecule `O=c1nc(N2CCOCC2)ccn1Cc1ccc(Br)cc1`, the Potency was inactive: > 76.9 µM. Then `CCCCn1c(SCC(=O)Nc2cc(C)on2)nnc1-c1cccnc1`, with inactive: > 76.9 µM. Then `O=C(Nc1ccc2oc(-c3ccccc3F)nc2c1)c1ccc2c(c1)OCCO2`, with inactive: > 76.9 µM.

`Cc1csc(SCC(=O)Nc2ccc(S(=O)(=O)N3CCCC3)cc2)n1`: the Potency is inactive: > 76.9 µM. Then `Cc1ccccc1N1CCN(c2ncnc3c2cnn3Cc2ccc(Cl)cc2)CC1`, with inactive: > 76.9 µM; and `O=C(COc1ccccc1)NCCn1ccc2ccccc21`, with inactive: > 76.9 µM. Next, `COCCn1c(=NC(=O)c2ccc3c(c2)OCO3)c(C#N)cc2c(=O)n3cccc(C)c3nc21`: inactive: > 76.9 µM; `COCCCNC(=O)C1CCCN(C(=O)Nc2ccc(OC)cc2)C1` (configuration not stated): inactive: > 76.9 µM.

With `CS(=O)(=O)N(CCc1ccccc1)CC(=O)NCc1ccccn1`, the Potency was inactive: > 76.9 µM. Turning to `Cc1nn(Cc2ccc(C(=O)Nc3nccs3)cc2)c(C)c1Cl`, the Potency was active: 13.7 µM. Then `COCCn1c(=N)c(C(=O)NCCc2ccc(OC)cc2)cc2c(=O)n3cccc(C)c3nc21`, with inactive: > 76.9 µM; and `O=C(CSc1ccc2c(c1)OCCO2)NCCN1C(=O)CSC1=O`, with inactive: > 76.9 µM. Then `CC(C)NC(=O)C(C)n1cccc1C(=O)c1ccccc1` (configuration not stated), with inactive: > 76.9 µM; and `Cc1ccc(-n2c(SCC(=O)NCc3ccco3)nc3sc(C)c(C)c3c2=O)cc1`, with inactive: > 76.9 µM; and `COc1ccc(Cn2c(=O)oc3ccc(C)cc32)cc1OC`, with inactive: > 76.9 µM.

`O=C(CSc1nnc(CNc2ccc(Cl)cc2)o1)Nc1nc2ccccc2s1`: the Potency is inactive: > 76.9 µM. Then `CC1(C)CC(OC(=O)c2ccco2)CC(C)(C)N1O`, with inactive: > 76.9 µM.
